# According to publication PMC6919601, “Identification of Plasmodium dipeptidyl aminopeptidase allosteric inhibitors by high throughput screening” (PLoS ONE, 2019):
# Out of some 110,000 compounds screened, about 230 (0.21%) showed an effect of 50% or more. The list shows a part of the results.
# Molecular target: DPAP1 (Plasmodium falciparum, UniProt Q8IIJ9)
# Experiment: primary screen, percent inhibition; read by cleavage of a fluorogenic dipeptide substrate; higher = more effect of the substance
# Set-up: species or system P. falciparum D10 trophozoite lysates; single well
# 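Also: 30 min substrate incubation versus DMSO and 10 µM JCP410 controls.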
# DPAP1, sequence (Q8IIJ9 whole entry, looked up): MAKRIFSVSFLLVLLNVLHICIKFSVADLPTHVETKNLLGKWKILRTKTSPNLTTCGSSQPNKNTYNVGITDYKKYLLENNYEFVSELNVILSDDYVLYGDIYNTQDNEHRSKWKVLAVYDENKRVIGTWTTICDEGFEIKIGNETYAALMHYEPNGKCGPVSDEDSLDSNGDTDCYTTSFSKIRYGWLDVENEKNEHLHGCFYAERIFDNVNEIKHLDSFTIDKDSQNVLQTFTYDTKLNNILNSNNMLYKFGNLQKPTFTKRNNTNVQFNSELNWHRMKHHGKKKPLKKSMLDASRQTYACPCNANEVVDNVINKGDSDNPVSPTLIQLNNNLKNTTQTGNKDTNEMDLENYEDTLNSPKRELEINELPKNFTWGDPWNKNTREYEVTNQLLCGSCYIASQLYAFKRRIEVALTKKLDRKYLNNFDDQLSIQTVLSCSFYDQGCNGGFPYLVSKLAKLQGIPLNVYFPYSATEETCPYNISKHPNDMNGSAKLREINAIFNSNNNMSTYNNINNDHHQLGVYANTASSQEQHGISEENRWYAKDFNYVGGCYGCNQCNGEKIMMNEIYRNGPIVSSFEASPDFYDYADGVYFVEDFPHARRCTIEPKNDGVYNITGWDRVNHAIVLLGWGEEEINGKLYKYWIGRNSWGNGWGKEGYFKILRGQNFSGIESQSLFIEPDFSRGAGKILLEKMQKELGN
row,SMILES,% Inhibition @ 10 uM
1,O=S(=O)(NC1CCCCC1)c1ccc(Oc2ccc(S(=O)(=O)NC3CCCCC3)cc2)cc1,-0.0369%
2,COc1cc2c(cc1C)-c1nc(NC(C)=O)sc1CC2,7.49%
3,CC1CCCCN1C(=O)c1cc(Cl)ccc1NC(=O)c1ccco1 (stereo not drawn),-1.46%
4,OC(CNCc1ccccc1)COc1cccc2ccccc12 (stereo not drawn),2.75%
5,Cc1nc2ccccc2n1Cc1ccc(Br)cc1,-2.35%
6,CCN1CCN(C(=O)C2CCCN(C(=O)c3cnn(-c4ccccc4)c3-n3cccc3)C2)CC1 (stereo not drawn),-3.79%
7,COc1ccc(C)cc1N(CC(=O)Nc1ccc(S(=O)(=O)N2CCOCC2)cc1)S(C)(=O)=O,0.163%
8,CCCc1ccc(OCC(O)CN2CCN(C)CC2)cc1 (stereo not drawn),-0.424%
9,Cc1cc(Oc2nc3ccccn3c(=O)c2/C=C(\C#N)C(=O)NC2CCS(=O)(=O)C2)ccc1Cl (stereo not drawn),1.19%
10,Cn1nc(C(=O)NCCN2CCc3ccccc3C2)c2c1-c1ccccc1SC2,3.3%
11,O=C(CSc1nnc(-c2ccco2)o1)NCc1ccccc1,-1.68%
12,CCc1ccccc1N(CC(=O)NCCc1ccccc1)S(C)(=O)=O,-2.66%
13,CSc1ncc(Cl)c(C(=O)Nc2sc3c(c2C(=O)NCCc2ccccc2)CCC3)n1,-8.43%
14,O=C1N=C(N2CCOCC2)S/C1=C/c1c[nH]nc1-c1ccccc1,-0.0626%
15,O=C(Nc1ccc(Cl)cc1)Nc1ccc(Cl)cc1Cl,4.51%
16,CC1CCN(C(=O)c2cnn(-c3ccccc3)c2-n2cccc2)CC1,-5.15%
17,COc1cc(/C=C2/NC(=O)N(Cc3ccccc3F)C2=O)ccc1OC(C)C,0.528%
18,N#Cc1ccc(Cn2c(=O)oc3ccccc32)cc1,-2.54%
19,Cc1ccccc1Cn1cc(NC(=O)c2cc(-c3ccco3)on2)cn1,-7.15%
20,COc1ccc(C(=O)CC(=O)c2cc(Cl)ccc2O)cc1OC,3.16%
21,O=C(C1=CCN(S(=O)(=O)c2ccc(F)cc2)CC1)N1CCOCC1,23.1%

row,SMILES,% Inhibition @ 10 uM
1,O=C1C(=O)N2C(=C1C(=O)N1CCOCC1)c1ccccc1CC21CCCC1,0.475%
2,Cc1cc(Br)cc(C)c1-c1cc(-c2ccccc2)[nH]n1,-1.69%
3,CCN(CC)C(CNS(=O)(=O)c1ccc(Cl)cc1)c1ccccc1 (stereo not drawn),1.12%
4,CCOc1ccc(/C=C2\SC(=O)N(CC(=O)N3CCOCC3)C2=O)cc1OCC,4.94%
5,CS(=O)(=O)N(CC(=O)Nc1cc(C(F)(F)F)ccc1Cl)C1CCCCC1,3.58%
6,N#Cc1cc2c(=O)n3ccccc3nc2n(CC2CCCO2)c1=O (stereo not drawn),1.12%
7,COCCCNC(=O)CSc1nc2ccc(Br)cc2c2nc3ccccc3n12,0.569%
8,C=CCNc1nc(OC)nc(OC)n1,2.13%
9,Cc1nc2ncnn2c(C)c1CCC(=O)N1CCCC1,7.61%
10,Cc1ccc2c(c1)c1nnc(S)nc1n2Cc1ccccc1,3.73%
11,NC(c1ccccc1)(c1ccc(Cl)cc1)c1ncc[nH]1 (stereo not drawn),-7.09%
12,Cc1ccc(NC(=O)CSc2nc(N)cc(N)n2)cc1Cl,-5.13%
13,CN1CCN(C2CCC(c3ccccc3)CC2)CC1 (stereo not drawn),-1.81%
14,CC(C)NC(=O)/C(=C/c1cn(S(=O)(=O)N(C)C)c2ccccc12)NC(=O)c1ccccc1,-1.74%
15,CC(C)c1ccc(CN(C)C2CCN(C)CC2)cc1,-1.77%
16,CSc1nc2ccsc2c(=O)n1Cc1ccccc1F,6.5%
17,CCc1cc2c(cc(C(=O)NCc3ccccc3C)n2C)s1,-4.85%
18,CCCN(CCC)CCNC(=O)c1cn(C)c(=O)c2ccccc12,1.91%
19,O=C(Cn1ncc2c1-c1ccccc1OC2)NCCc1ccsc1,-2.42%
20,CCOC(=O)c1c(C)[nH]c(C)c1S(=O)(=O)NCCc1ccc(OC)c(OC)c1,0.708%
21,N#CC1=C(N)Oc2cc(O)c(Cl)cc2C1c1ccccc1Cl (stereo not drawn),-6.18%

row,SMILES,% Inhibition @ 10 uM
1,CSc1nc2sc3c(c2c2nnc(C)n12)CCC(C(C)(C)C)C3 (stereo not drawn),-7.23%
2,c1ccc(-c2cn3c(n2)SCC3)cc1,-3.98%
3,CCOC(=O)c1c(C)[nH]c(C)c1S(=O)(=O)NCc1cc(OC)c(OC)c(OC)c1,0.708%
4,Cc1cc(O)n2nc(Cc3ccccc3)c(-c3ccc(Cl)cc3)c2n1,1.72%
5,CN1CCN(S(=O)(=O)c2ccc(-c3cc(C(F)(F)F)no3)s2)CC1,3.08%
6,O=C(O)c1ccccc1C(=O)Nc1ccc(-c2ccc([N+](=O)[O-])cc2)cc1,-4.31%
7,COc1ccc(NC(=O)C2=C(C)NC(=O)NC2c2ccc(OC)c(OC)c2)cc1 (stereo not drawn),7.42%
8,O=C(Nc1ccc(Br)cc1)c1cc2nc(C(F)F)cc(C(F)F)n2n1,-1.04%
9,Cc1ccc(OCC(=O)Nc2cccc(C(F)(F)F)c2)cc1C,2.53%
10,Cc1c(C(=O)N2CCN(C)CC2)sc2ncnc(N3CCN(c4ccccn4)CC3)c12,-2.87%
11,N#CCCN1CCN(C2=NC(=O)/C(=C\c3ccc(-c4ccc(Cl)cc4)o3)S2)CC1,-2.8%
12,COc1cc(C(=O)Nc2ccc(Cl)cc2F)cc(OC)c1OC,2.48%
13,COCCCn1c(=O)c2sccc2n2c(CCCC(=O)N3CCC(C(N)=O)CC3)nnc12,-10.3%
14,CCN(c1ccccc1C)S(=O)(=O)c1ccc(C)cc1,-7.78%
15,Cc1ccc2nc(-c3ccc(N4C(=O)CC(N5CCCC(C(N)=O)C5)C4=O)cc3)sc2c1 (stereo not drawn),6.17%
16,CCOc1cc(C(=O)Nc2cc(=O)n(C)c(=O)n2C)cc(OCC)c1OCC,5.08%
17,CCc1[nH]nc2c1C1(CCN(C(C)=O)CC1)C(C#N)=C(N)O2,2.51%
18,CCOC(=O)c1c(-c2ccc(F)cc2)csc1NC(=O)c1c(-c2ccccc2)noc1C,0.64%
19,CC1CCN(S(=O)(=O)c2ccc(C(=O)Nc3nc4c(s3)Cc3ccccc3-4)cc2)CC1,-3.21%
20,COc1ncnc(-c2ccccc2)c1-c1ccccc1,7.39%
21,COc1ccc(C(=O)N2CCN(CCCc3ccccc3)CC2)cc1,-3.87%
